# Read counts are not given, so values of variants with three or more changes are uncertain.
# B1: LINE1-mini (parent)
# chain: GGCAGAGCUCAACACAGCGUGGCAAAGUGGCUGUGGCUAGACUGCC
# Variants of: B1
# Assay: self-cleavage, relative activity (ratio to wild type); higher = more cleavage; in vitro, sequencing; the parent is a self-cleaving ribozyme
row,Variant,self-cleavage
1,G1U A41U C42U,0.01
2,G27U C31G U38A C42A,0.32
3,G7C A12U A14U G35U,0.06
4,G2U G36U C42G C45A,0.01
5,A4G U9G G36C,0.16
6,G7U C10G A25U C31A A41C,0.02
7,A26G G29A C45U C46U,1.25
8,A6C G19C G30U,1.46
9,G17C G22U A26G G30C G35C G36A,0.02
10,G5U A24G C37U,0.06
11,G5U C8U U28G G30U C31U A39C,0.05
12,G2U C18G C23A U38C,0.01
13,C15A C31A G33C,0.04
14,A6U G21C C23U A26G,0.91
15,C3U A24C C37A U43G,0
16,A11U C13A G40U C42G,0.05
17,C23A G40C C42U C46G,0.09
18,G1C U9G A39U,0.01
19,C10U A26C G33U,0.13
20,G5A G30U G33A,0.1
21,A14G G17C U20G U28C A39G,0.02
22,U43A G44A C45U,0.05
23,G7C A11U A12G G29U C31U G33U,0.01
24,C15U G19U A24U,0.19

row,Variant,self-cleavage
1,C23A A24U A26C G36A,0.35
2,A12U A14C A39U,0.06
3,C18U A24U G27U,1.2
4,G5C U9A G33A,0.02
5,C8A A11C A26G,0.01
6,A25U G27U C45G,0.1
7,G2C A26C G33A U38C,0.22
8,G7U A24G A26C,0.07
9,A14U G17U G33A,0.07
10,C3U A6G C8G C18G G27U G33U U34A,0.05
11,G22C G36U C45G,0.02
12,C10U C18G G27A U32G,0.05
13,A14G C18U G19U G35A G36U G40U,0.01
14,A6U C13U G27A,0.26
15,G2C U43A C45A,0.13
16,A11U C18U G21U G27A,0.14
17,G1U G19U U20A,0.06
18,G2C A12G G35C A39U G40U,0.22
19,C3U C8A U32C G33U A39C,0.18
20,A11U G35U G36C C45G C46U,0.01
21,C10A G19A U28G U34A,0.01
22,C13U G17A A41C,0.04
23,G17C C18G G44A,0.01
24,A4U C18G U20A U34G,0.04

row,Variant,self-cleavage
1,G2C A4U A14U A25G C42A G44C,0.01
2,A11C C13U C18A U34C,0.01
3,G1U G17U U38G G40U,0.03
4,G2U A6U U9C A39U,0.01
5,C15A C23G U43C,0.05
6,A14C C18U G21U G22C C31A A39U C46G,0.01
7,A4C G30U G40C C42A,0.57
8,A4C C31A U43C,0.06
9,G2C G36U G44U,0.07
10,A6G A12U C37U U38G,0
11,A4C C10G G27C A41C,0.02
12,G2C G17A G19U,0.04
13,G2A A6U C18U G27C,0.04
14,G2C A6U A25G C31A,0.06
15,C18A C23A G35U,0.01
16,G5A A6G C8A U38A,0.02
17,A11U C13G G33A C37U A39U G40C C46U,0
18,C8A G17A A39U,0.15
19,C8G C10U A11C C13A,0.04
20,G5C G36U C37A A41G,0.02
21,A4G C10A U20A A26C G40A,0.01
22,A6C C10A G22U C45A,0.05
23,G2C G27C U28C G44U,0.2
24,U9G A14C G22A C23A A26G C45G,0.04

row,Variant,self-cleavage
1,C18G G22C U38G C46A,0.02
2,A4U C15A G29C U38G,0.02
3,C13U G35U U38G,0.02
4,A12C C23G A24U,0.01
5,G5C C10U A41G,0.01
6,G27A U32G C45A,0.09
7,G1C U20G G27C C46G,0.28
8,C8U C13A A16C G17C G21A A26G C37U,0.15
9,A6C G35A G40A,0.03
10,G1U C10U C18A G35U C45A,0.02
11,U9G C13A C23U,0.06
12,A4G U9C C23A G40U,0.01
13,C18G G33U G44C C46U,0.02
14,G1U A6U C10G C42A,0.03
15,G5C A6C G21U,0.07
16,C8A U34A G36A,0.08
17,A6C C8A G19A,0.82
18,G17A C37U C45A,0.02
19,C3A G5U U9G,0.3
20,G5U C18A U32C C45G C46U,0.03
21,A14G A24C G29U C45U,0.2
22,U9G A24U A26C C31U,0.01
23,G7A U9C G27U G29C C46A,0
24,C8A A11G G29U U34G,0.04

row,Variant,self-cleavage
1,A12U U28C G40A C42A U43A,0.04
2,C8U G22C C23G G36C A39C,0.03
3,U20G A39U U43A,0.32
4,G1A G36C G40U C46U,1.18
5,U9A C10A G19A C23G,0.01
6,G2C A16C U32A C46A,0.06
7,C3G G27C C37A,0.19
8,G17U U20G G22A U28G C31G G35A,0.02
9,G33U U38A G44A,0.04
10,C18U G21C C23A C37U G44C,0.06
11,A4C C10A G27A G35U,0.05
12,C8A C23U G36A,0.45
13,A16U G22U U43G,0.01
14,G1U A4G G5U,0.26
15,C8U G21U G40U,0.2
16,G7A U9C C18A C37U,0.02
17,A4U C15A C18U A39U,0.25
18,G2A C3A G33A G36A A39U,0.28
19,A6U C8A G36C A41G,0.36
20,G5A A16G G29A U43A G44A,0.01
21,G35A G40U C46U,0.03
22,C3U U34A C37U,0.04
23,C10U G19C G21U,0.24
24,G7U A12U C42G,0

row,Variant,self-cleavage
1,A6G G22A A26G G30C C46A,0.08
2,C3U A16G C23A,0.66
3,A4C A11G A14G G35U G36U,0
4,G1U G21C U38G C42A,0
5,G7C G21A A24C,0.2
6,G19C A24G U34G C45U,0.38
7,A11C U20C G35A A39G C46U,0
8,C10U G21C U43G C46U,0
9,G5C C15A G19U,0.01
10,A25C U28C U38A,0.1
11,C8U C18A A41U,0.15
12,U9A G17U U28A,0.11
13,G5C C13U A14C A26C G29U C37A,0.97
14,G5C C10A C23U,0.02
15,G2U A25U G27U G33U A39G C46A,0.01
16,C8G C10A U20A G22C G35A,0.01
17,A4G A16G G29A G36C C42A,2.17
18,G1U G30C C46U,0.12
19,G17C U20C C45G,0.07
20,U20A G21U A26C U38G,0.01
21,A11G C15A A25G G40U,0
22,G1U G5C U9A C13U G36U,0.03
23,C13A A26C U28G,0.07
24,G1C G19U C31G G33U C45G,0.01

row,Variant,self-cleavage
1,U28A G36C G40A C42G,0.02
2,A4U U9C C18A,0.09
3,C3A G29A G35C C46A,0.13
4,A4U A11C A26C U38G C45G,0.04
5,C10G U20G G22A C31G,0.03
6,G5A U32C G40U,0.03
7,C8G G17C G29C,0.36
8,A4G G5A C10G C37G,0.01
9,G7U G17U U20G C23A G30A C37G,0
10,U20G A26G G44C,0.01
11,C10G A14U C15U,0.02
12,G30A G40C C46A,0.12
13,G2U C10U A14U U20A,0.02
14,G1U G7U G40U,0.04
15,G29C C31U C46U,0.39
16,A25U G30U C31A C37G C46G,0.01
17,G1U A6U C10A A26U U34A,0.03
18,U9G A16G U28C U34G,0.04
19,C3A G22C C23U G33U,0.12
20,C8U G17U G40U,0.06
21,C13A G17C U34C G36U A39C,0
22,C3U C8A C15A,0.64
23,C13G A14U G17C G44A,0.06

# — the RNAGym collection of RNA variant scans (doi:10.7554/elife.90254)
